# Measurements reported in article PMC4336329 (PLoS ONE, 2015).
# The campaign covered roughly 310,000 compounds. About 2,200 (0.71%) showed an effect of 50% or more. The effect is printed as a negative number. The list shows a part of the results.
# Biological target: human ether-à-go-go-related gene (hERG) potassium channel (human, UniProt Q12809)
# Assay: primary screen, population patch clamp on CHO cells stably expressing hERG
# Chain of human ether-à-go-go-related gene (hERG) potassium channel (Q12809 whole entry, looked up): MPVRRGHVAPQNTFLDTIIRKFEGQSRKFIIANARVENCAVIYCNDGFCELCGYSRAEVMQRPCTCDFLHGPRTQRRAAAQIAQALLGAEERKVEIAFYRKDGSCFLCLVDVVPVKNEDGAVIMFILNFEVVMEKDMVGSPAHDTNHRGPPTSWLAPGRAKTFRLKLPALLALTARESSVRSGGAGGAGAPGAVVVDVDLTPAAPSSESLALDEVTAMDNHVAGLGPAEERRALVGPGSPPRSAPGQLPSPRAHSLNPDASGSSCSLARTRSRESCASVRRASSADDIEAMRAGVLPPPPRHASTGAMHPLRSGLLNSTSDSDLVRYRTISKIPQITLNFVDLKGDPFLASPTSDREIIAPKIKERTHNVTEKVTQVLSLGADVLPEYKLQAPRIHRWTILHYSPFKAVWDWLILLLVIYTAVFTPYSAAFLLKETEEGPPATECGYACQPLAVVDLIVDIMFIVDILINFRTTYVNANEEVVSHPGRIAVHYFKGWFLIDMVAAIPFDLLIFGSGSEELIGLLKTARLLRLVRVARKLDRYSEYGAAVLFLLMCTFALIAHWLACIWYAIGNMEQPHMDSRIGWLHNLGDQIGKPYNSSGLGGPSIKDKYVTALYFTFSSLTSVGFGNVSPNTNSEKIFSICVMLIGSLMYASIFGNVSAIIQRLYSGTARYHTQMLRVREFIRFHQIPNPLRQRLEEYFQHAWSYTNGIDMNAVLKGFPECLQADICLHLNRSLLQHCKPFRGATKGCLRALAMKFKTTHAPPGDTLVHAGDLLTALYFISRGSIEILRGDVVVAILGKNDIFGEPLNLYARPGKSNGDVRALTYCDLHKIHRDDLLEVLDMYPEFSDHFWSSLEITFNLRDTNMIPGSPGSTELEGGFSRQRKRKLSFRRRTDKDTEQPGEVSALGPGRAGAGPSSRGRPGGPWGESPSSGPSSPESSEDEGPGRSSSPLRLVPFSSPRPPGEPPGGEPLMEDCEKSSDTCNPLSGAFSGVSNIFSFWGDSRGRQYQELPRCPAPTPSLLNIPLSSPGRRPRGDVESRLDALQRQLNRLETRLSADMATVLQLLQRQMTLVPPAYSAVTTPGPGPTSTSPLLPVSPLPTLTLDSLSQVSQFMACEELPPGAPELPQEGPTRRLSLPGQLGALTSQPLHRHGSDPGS
row,SMILES,"hERG current change (%, negative = inhibition) at 1uM [%]"
1,O=C1c2ccccc2C(=O)C1(CO)c1ccc(OC(F)F)cc1,14.7
2,COCCNC(=O)C(c1ccc(F)cc1)N(C(=O)CCC(=O)Nc1ccccn1)C1CCCCC1 (stereo not drawn),18.5
3,CCCc1cc2c(=O)c(-c3cscn3)c(C(=O)OCC)oc2cc1O,8.99
4,COc1ccccc1C(=O)N(Cc1ccco1)C1CCS(=O)(=O)C1 (stereo not drawn),5.68
5,O=C(Cc1ccccc1)N(c1ccc(F)cc1)C1C=CS(=O)(=O)C1 (stereo not drawn),2.58
6,COc1cc2c(cc1OC)CN(C(=O)CSc1nc(C)cc(C)c1C#N)CC2,3.66
7,COc1ccc(N=CC2=C(Nc3ccc(OC)cc3)c3c(C)nn(-c4ccccn4)c3CC2)cc1,0.785
8,COc1ccc(NC(=O)C2CCCN(S(=O)(=O)c3cccnc3)C2)c(OC)c1 (stereo not drawn),3.84
9,C#CCOc1ccccc1CNC1CCN(Cc2ccccc2)CC1.O=C(O)C(=O)O,9.36
10,Cc1cc(C(=O)OCc2nnc(-c3ccccc3)o2)c(C)n1-c1ccccc1,-18.8
11,Cc1ccccc1CNS(=O)(=O)c1ccccc1[N+](=O)[O-],2.13
12,COc1cccc(NC(=O)c2sc3ncn(CC(=O)N4CCN(c5ccccn5)CC4)c(=O)c3c2C)c1,3.32
13,Cc1ccc(S(=O)(=O)N(CC(O)CN(C)C)c2ccccc2)cc1.Cl (stereo not drawn),-43.8
14,CCC1CCC/C1=N\NC(=O)c1ccoc1C (stereo not drawn),23.8
15,O=C(NCc1c(Cl)cccc1Oc1ccccc1)c1ccccc1,16
16,Cc1nc(S/C(=C/c2ccc(-c3ccc(Cl)cc3)o2)C(=O)O)n[nH]1,13.9
17,COc1ccc(Cl)cc1NC(=O)CCS(=O)(=O)c1ccc(Br)cc1,11.3
18,Cc1ccc(S(=O)(=O)N2CCN(C(=S)NCC3CCCO3)CC2)cc1 (stereo not drawn),-0.199
19,O=C(CSc1ccc(-c2ccc(F)cc2)nn1)NCCc1ccccc1,11.7
20,O=C(O)CCNC(=O)/C(=C/c1ccco1)NC(=O)c1ccco1,19.5
21,COC/C=C/C1=CC2=CC(=O)C(C)(OC(=O)c3cnc4ccccc4n3)C(=O)C2=CN1Cc1ccco1 (stereo not drawn),11.5
22,O=C(c1cccs1)N1CCN(S(=O)(=O)Cc2ccccc2)CC1,4.98

row,SMILES,"hERG current change (%, negative = inhibition) at 1uM [%]"
1,OCCn1c(CSc2nc3ccccc3n2CCO)nc2ccccc21,-0.286
2,CCn1cc(S(=O)(=O)NC(C)c2cc(OC)ccc2OC)cn1 (stereo not drawn),3.63
3,CC(C)C(=O)N1N=C2CCCCC2C1(O)C(F)(F)F (stereo not drawn),8.65
4,COc1ccc(NC(=O)C2CCN(S(=O)(=O)c3c(C)noc3C)CC2)cc1Cl,10.9
5,COc1cc(CNC2CCCC2)cc(OC)c1OC.Cl,9.09
6,COc1cccc(OCC(O)CN2CCN(c3ccccc3)CC2)c1.Cl (stereo not drawn),0.228
7,O=C(Nc1cccc(Cl)c1)OCc1cnc(Cl)s1,3.86
8,CCOc1cc(C(=S)N2CCC(O)CC2)ccc1OS(=O)(=O)c1ccc(Br)cc1,8.18
9,Cc1cc(C)n(CCN(C)Cc2cn[nH]c2-c2ccc(F)cc2F)n1,5.23
10,COc1ccc(C(=O)NC(=S)Nc2ccc(Cl)cn2)cc1OC,11.5
11,Cc1ccc(SCC(=O)OCC(=O)NC2(C#N)CCCCC2)cc1,-1.54
12,COc1ccc(NC(=O)c2ccccc2)cc1NS(=O)(=O)c1ccc(F)cc1,-0.0034
13,CN(C)C(=O)COc1ccc(Br)cc1,6.59
14,O=C(Nc1cnn(Cc2c(Cl)cccc2Cl)c1)C(c1ccccc1)c1ccccc1,7.45
15,c1ccc(-c2nnn(C34CC5CC(CC(C5)C3)C4)n2)cc1,1.72
16,O=c1[nH]c2cnccc2n1-c1ccccc1,8.23
17,CCCCn1c(N2CCC(Cc3ccccc3)CC2)nc2c1c(=O)[nH]c(=O)n2C,2.69
18,COc1ccc2nc(NC(=O)c3cccnc3SC)sc2c1,11.3
19,CSCCC(N=C1NS(=O)(=O)c2ccccc21)C(=O)N1CCCC(C(N)=O)C1 (stereo not drawn),12.5
20,c1ccc(-c2cn3nc(-c4ccccc4)c(-c4ccccc4)nc3n2)cc1,7.88
21,C=CCOc1ccc(/C=C/C(=O)OCc2csc(CC(=O)Nc3ccccc3C)n2)cc1,15.3
22,O=C(NCc1ccc2c(c1)OCO2)C(C(=O)c1ccccc1)n1cc(Cl)ccc1=O (stereo not drawn),12

row,SMILES,"hERG current change (%, negative = inhibition) at 1uM [%]"
1,Cc1ccccc1-c1nc(CS(=O)(=O)CC(=O)NC2CC2)c(C)o1,15.1
2,CCN(CC(=O)Nc1ccc(OC)cc1)C(=O)Cc1ccsc1,2.98
3,COc1cc(SC)ccc1C(=O)NCCOc1ccc(Cl)cc1,2.33
4,CCOc1ccc(CCNC(=O)CN2C(=O)NC3(CCCC3)C2=O)cc1OCC,12
5,CCn1c(SCC(=O)Nc2ccc(OCc3ccccc3)cc2)nnc1-c1ccco1,9.71
6,CC(C)N(C(=O)CSc1nnc(Cc2ccc3c(c2)OCO3)n1C)C(C)C,3.49
7,COc1cccc(C(=O)N/N=C(\C)c2cccc(NC(=O)c3ccc(F)cc3)c2)c1OC,0.263
8,CNc1ccc(Br)cc(C(=O)/C=C/c2ccc(Cl)cc2Cl)c1=O,-1.21
9,CC(NC(=O)CCCc1nnc2n(C)c(=O)c3sccc3n12)c1ccccc1 (stereo not drawn),14.5
10,Cc1cccc(NS(=O)(=O)c2cccc(C(=O)N3CCCCCCC3)c2)c1,5.66
11,Cc1ccccc1-n1c(-c2csc3ccccc23)n[nH]c1=S,6.3
12,Cc1cc(NC(=O)C2C3C(=O)N(CCC(C)C)C(C(=O)NCc4ccccc4)C34C=CC2(C)O4)no1 (stereo not drawn),12.5
13,COc1ccc(OC)c(CN2CCN(C(=O)c3ccco3)CC2)c1.O=C(O)C(=O)O,12.2
14,O=c1[nH]c(C2CCN(S(=O)(=O)Cc3ccccc3)CC2)nc2c1nnn2Cc1ccccc1Cl,13.8
15,Cc1ccc(C)c(C(=O)CN2C(=O)c3ccccc3S2(=O)=O)c1,16.3
16,COc1cccc(-c2nc(CS(=O)(=O)CC(=O)Nc3cccc(C(C)=O)c3)c(C)o2)c1,48.5
17,CC(=O)c1ccc(NC(=O)CC2Nc3cccc4cccc(c34)NC2=O)cc1 (stereo not drawn),18
18,O=C(COC(=O)c1ccc(F)cc1F)Nc1ccc(Cl)cn1,0.0609
19,COc1cccc(CNC(=O)CCCn2nc(C)c3c(C)n(-c4ccc(C)cc4)nc3c2=O)c1OC,13.1
20,COCCn1c(C)cc(C(=O)COc2ccc(C)nc2[N+](=O)[O-])c1C,4.72
21,CCc1ccc(N2C(=O)Nc3ccccc3C2(O)C(=O)N2CCN(c3ccccn3)CC2)cc1 (stereo not drawn),1.81
22,FC(F)(F)c1cc(CCN2C(=S)NC[C@@H]2Cc2ccccc2)cc(C(F)(F)F)c1,15

row,SMILES,"hERG current change (%, negative = inhibition) at 1uM [%]"
1,CC(C)(C)NC(=O)NCC1CCCC1NC(=O)NC(C)(C)C (stereo not drawn),11.6
2,CN1CCN(CCCNC(=O)CCCOc2cc(=O)n(C)c3ccccc23)CC1,3.78
3,CCOC(=O)COc1c(Cl)cc(/C=C2\N=C(C)OC2=O)cc1OC,15.4
4,Cc1c(CC(=O)NCC(C)C)c(=O)oc2cc3c(cc12)CCC(C)(C)O3,13.9
5,Cc1cc(C(=O)N/N=C/c2ccc(C)s2)n[nH]1,14.1
6,Cc1ccc(S(=O)(=O)N2CCN(C(=O)c3cccs3)CC2)cc1C,2.03
7,CSc1ccc(/C=N/N2CCN(Cc3ccccc3Cl)CC2)cc1,9.96
8,CCn1c2ccc(/C(C)=N\O)cc2c2cc(/C(C)=N\O)ccc21,10.5
9,COC(=O)c1c(C)[nH]c(C(C)=O)c1C,4.12
10,COC(=O)C1CSC(C(=O)OC)N1C(=O)Nc1ccccc1 (stereo not drawn),7.39
11,CC(C)c1ccc(NC(=O)C2CC(=O)N(C3CCCC3)C2)cc1 (stereo not drawn),13.9
12,CCn1c(=O)c2sccc2n(Cc2ccccc2)c1=O,8.5
13,NC(=O)NC(CC(=O)N1CCc2ccccc2C1)c1ccc(Cl)cc1 (stereo not drawn),9.39
14,NS(=O)(=O)c1ccc(CCNC(=O)C2CCCO2)cc1 (stereo not drawn),13
15,Cn1c(N)nc2nc(CCc3ccccc3)c(=O)[nH]c2c1=O,13.7
16,CN(C)c1ccc(NC(=S)NC23CC4CC(CC(C4)C2)C3)cc1,21.3
17,O=C(NCCCN1CCCC1=O)c1ccc2c(=O)n(-c3ccccc3F)c(=S)[nH]c2c1,4.18
18,O=c1nc(N2CCCC2)nc(Nc2ccccc2)[nH]1,13
19,Cc1c(CCO)c(=O)n(-c2ccccc2)n1S(=O)(=O)c1c(Cl)cc(Cl)cc1Cl,14.8
20,CCn1c(COc2cc(C)ccc2C(C)C)nnc1SCC(=O)Nc1nccs1,10.4
21,COc1ccc(S(=O)(=O)n2nc(OC(C)=O)cc2N)cc1,5.95
